Data on 85 compounds can be found in ChEMBL document CHEMBL4888484, “Replenishing the malaria drug discovery pipeline: Screening and hit evaluation of the MMV Hit Generation Library 1 (HGL1) against asexual blood stage Plasmodium falciparum ,using a nano luciferase reporter read-out” (2022).

Where “and” joins values, the source holds several entries; their conditions need not be identical. Equal values may be shown once. In all, about 150,000 compounds went through this assay and about 540 (0.36%) showed an effect of 50% or more. Some of the results follow.

The test system of the assay is Plasmodium falciparum. Kind of assay: Primary screen in NF54 nanoGlo assay, in single point, at 2uM, 72h; a lower Z score goes with more inhibition. The format is functional, Erythrocyte. Particulars: timepoint 72 hour.

`COc1ccccc1OCC(=O)OCc1nc(O[C@@H](C)c2ccccc2)ccc1Cl`: the “% Inhibition” value is 16% and the Z score is -2.18.
For `O=C(NC[C@H](O)c1ccoc1)c1ccoc1` the same measures were -5% and 0.78.
Consider `c1ccc(-c2nnc(OCc3nc(C4CCCC4)no3)o2)cc1`, for which the “% Inhibition” value was determined as 0% and the Z score is 0.05.
In the case of `CCOc1cc(N2CC(C)C2C)ncn1` (stereo not drawn), the “% Inhibition” value is on record as -30% and the Z score came to 3.54.
Consider `CC(C)S(=O)(=O)N1CCN(C(=O)C[C@@H]2NC(=O)N(c3ccccc3)C2=O)CC1`, for which the “% Inhibition” value (2 µM) is -5% and -1%.
As for `Cc1ccc(C)c(-c2cn3c(C(=O)N(C)[C@H]4CCOC4)csc3n2)c1`, the “% Inhibition” value was -10% and the Z score was 1.41.
For `C[C@]1(c2cccc(C(=O)O)c2)Nc2ccccc2-c2nnnn21`, in that order: 5% and -0.68.
Regarding `COc1ccc(Cc2c(N)nc(Cn3cncn3)nc2N)cc1`, the “% Inhibition” value amounted to 29% and the Z score is -3.8.
For `C[C@@H]1NC(=O)N(c2ccccc2NC(=O)c2cccn2C2CC2)C1=O`, in that order: -6% and 0.63.
For `CC(C)=CC1C(C(=O)N2CCOC(C(N)=O)C2)C1(C)C` (stereo not drawn) the same measures were -8% and 0.98.
For `COCc1nnc(CNC(=O)N[C@H]2CCCc3ccccc3C2)[nH]1` the same measures were -6% and 1.24.
In the case of `CC1CCN(c2nn(CC(=O)Nc3ccc(C(C)C)cc3)c(=O)c3ccccc23)CC1`, the “% Inhibition” value is reported as -21% and the Z score was 3.12.
For `CC(C)(O)Cn1cnc(-c2ccccc2)n1`, in that order: -7% and 0.93.
For `N#Cc1ccc2c(c1)C(=O)[C@H](C#N)C(=O)N2Cc1ccccc1` the same measures were -1% and 0.23.
Turning to `CC1CCCC(C)N1C(=O)CN1C(=O)NC2(CCCC2)C1=O` (stereo not drawn), the “% Inhibition” value is on record as -1% and the Z score came to 0.14.
For `Cn1c(C(=O)NCc2ccc3[nH]cnc3c2)cc2ccc(Cl)cc21` the same measures were -16% and 1.43.
For `COCC1(S(=O)(=O)Nc2ccc(Cl)cc2-c2nnn[nH]2)CC1`, in that order: -9% and 1.43.
For `Cc1c(Cl)cccc1-n1nc(Cn2cncn2)nc1[C@@H]1CCCCO1` the same measures were -1% and 0.14.
For `Cc1nc(NC(=O)c2ccc3c(c2)C(=O)N(C2CCCC2)C3=O)sc1C`, the “% Inhibition” value is -9% and the Z score is 1.11.
As for `Cc1ccccc1NC(=O)CN1CCN(CC(=O)c2ccco2)CC1`, the “% Inhibition” value is recorded as -3% and the Z score turned out to be 0.58.
For `Cn1nc(C2CC2)nc1C(=O)NCC1(C)CCCC1`, in that order: -14% and 2.68.
Consider `COc1ccc(-c2nn(-c3ccccc3C)cc2CN(C)C2CCOCC2)cc1F`, for which the “% Inhibition” value was 1% and the Z score is given as -0.15.
For `Cc1cc([C@@H](O)CCNC(=O)C(=O)Nc2cccc(N3CCCC3=O)c2)c(C)o1`, in that order: -13% and 1.71.
For `CCC(C)NC(=O)C1COC2(CCN(C(=O)c3ccc4c(c3)OCO4)CC2)N1C(=O)c1ccc(C)cc1` (stereo not drawn) the same measures were -12% and 1.93.
For `COc1ccc(Cc2nn(CN3CCC(C(=O)Nc4ccc(C)cn4)CC3)c(=S)o2)cc1` the same measures were 21% and -2.69.
Consider `CNS(=O)(=O)[C@H]1CCN(Cc2cc(Cl)ccc2F)C1`, for which the “% Inhibition” value is given as -4% and the Z score is 0.49.
For `Cc1noc(C)c1CN1CCn2c(C)nnc2[C@@H]1C(=O)N1CCCC1` the same measures were 4% and -0.64.
For `CN(Cc1cscn1)C(=O)NCc1ncnn1C(C)(C)C` the same measures were -7% and 1.06.
For `C=CCCS(=O)(=O)N1CCCC[C@H]1C(=O)CC`, in that order: -14% and 1.61.
For `CCn1ccc(C(=O)N2CC3(C[C@H](N4CCOCC4)CO3)C2)n1`, the “% Inhibition” value is reported as -19% and the Z score worked out at 2.95.
For `Cc1cc(O)nc(C=Cc2cn(C(C)(C)C)nn2)n1`, the “% Inhibition” value was -22% and the Z score is recorded as 2.53.
For `C[C@H](C(=O)N1CCc2c(nc[nH]c2=O)C1)C(C)(C)C`, in that order: -13% and 2.28.
For `CCn1cccc(CNC(=O)c2ccc3c(c2)[C@@H](C)CO3)c1=O`, in that order: -16% and 2.37.
For `CCN(C(=O)c1cn(C(C)C)nc1C)c1cccc(C)c1F` the same measures were -3% and 0.48.
On to `CNC(=O)Nc1cc(C)cc2c(-c3ccccc3)c(C(=O)NCc3cccc(F)c3)[nH]c12`, for which the “% Inhibition” value was found to be 38% and the Z score is -4.3.
For `CCOc1ccc(CNC(=O)c2ccc3cnn(Cc4ccc(F)cc4)c3c2)cc1`, in that order: -21% and 1.82.
For `CCCCNC(=O)c1ccc(-c2c[nH]nc2C)o1`, in that order: -10% and 1.14.
For `OCCn1nc(Cc2c(Cl)cccc2Cl)nc1C1CCC1` the same measures were -7% and 1.02.
Take `Cc1ccc(OC[C@H]2CN(Cc3cccs3)CCO2)cc1`: the “% Inhibition” value is -5% and the Z score was 0.78.
Turning to `CC(=O)Nc1cc(NC(C)=O)cc(-c2nc(C(C)C)nn2-c2ncccc2C)c1`, the “% Inhibition” value was -17% and the Z score came to 2.27.
For `CCC(C)NC(=O)Cn1cnc2nc(N3CCCC(C(=O)NC(C)C)C3)sc2c1=O` (stereo not drawn) the same measures were -18% and 1.57.
For `O=C([C@H]1C[C@@H]1c1ccccc1)N1Cc2ccccc2OC(c2ccccc2)C1` (stereo partly drawn), the “% Inhibition” value was 4% and the Z score is -0.84.
For `CC(C)(C)c1nc(CN2CCN(S(=O)(=O)c3cccnc3)CC2)no1`, in that order: -4% and 0.83.
In the case of `O=C(c1ccc2c(c1)n(CC1CC1)c(=O)n2C1CCCCC1)N1CCC(F)(F)CC1`, the “% Inhibition” value was -4% and the Z score is 0.77.
For `CCN(Cc1cnn(C)c1)c1ncnc(C)c1F`, in that order: -6% and 1.28.
As for `N[C@H]1C[C@H](c2cc(NCc3cccc(Cl)c3F)ncn2)C1`, the “% Inhibition” value is -8% and the Z score was determined as 1.5.
For `Cc1noc(C)c1CCC(=O)N1C2CCC1CC(n1ccnn1)C2` (stereo not drawn), in that order: -3% and 0.45.
For `O=C(N[C@@H]1CN(Cc2ccc3[nH]ccc3c2)CC[C@@H]1CO)c1ccccc1` the same measures were -12% and 1.6.
For `Cc1ccccc1Cn1c(-c2ccccn2)nnc1N1CCN(Cc2ccccc2)CC1` the same measures were -2% and 0.31.
For `C[C@@H](c1ccccn1)N(C)c1cc(N2CCC(C)(O)CC2)ncn1`, the “% Inhibition” value is listed as -6% and the Z score worked out at 1.21.
For `C=CCNCC#CCOc1ccc(CC)cc1`, in that order: 17% and -1.82.
Take `CCOC(=O)c1cnn2ccc(NC(=O)c3cn(C)nn3)cc12`: the “% Inhibition” value is recorded as -14% and the Z score is given as 2.18.
`CCC1(CC)CN(c2ncnc(N)c2Cl)CCS1(=O)=O`: the “% Inhibition” value is recorded as 4% and the Z score is listed as -0.66.
In the case of `COc1ccc(NC(=O)c2n[nH]c3c2CCC3)cn1`, the “% Inhibition” value (2 µM) was 3% and -2%.
With `CN(C)c1nc2ccc(NCc3cc4c(cc3O)OCO4)cc2o1`, the “% Inhibition” value is reported as 27% and the Z score was -3.97.
For `CN(CCC(=O)Nc1ccc2c(c1)CCC2)CC(=O)Nc1ccc(Cl)cc1` the same measures were -9% and 0.8.
For `CCn1nc(CO)c2c1CCN(C/C=C/c1ccc(OC)cc1)C2`, in that order: 2% and -0.38.
For `Cc1[nH]c2ccc(CNc3cncc(C(=O)N(C)C)n3)cc2c1C` the same measures were -7% and 0.96.
Take `CCCCn1nc(Cn2cncn2)nc1CN1CCCC1=O`: the “% Inhibition” value is recorded as 2% and the Z score is given as -0.38.
For `Cc1cnc2c(c1)N(S(=O)(=O)c1cc(F)ccc1C)CCO2` the same measures were 11% and -2.13.
For `CCOC1CC(NC(=O)N2CCCc3n[nH]cc32)C12CCOCC2` (stereo not drawn), in that order: -5% and 0.66.
For the compound `N#Cc1ccccc1C(=O)N[C@H]1CCOC[C@@H]1Oc1cccc(F)c1`, the “% Inhibition” value is -12% and the Z score is 1.31.
For `COCCNC(=O)[C@@H]1Cn2c(n[nH]c2=O)CN1C(=O)c1ccc(C)s1`, in that order: -17% and 2.03.
For `CCOCC1CCN(C(=O)c2ccc(-c3ccc4c(c3)CCC4=O)cc2)CC1` the same measures were 6% and -1.06.
For `CC1=C[C@@H](CN)[C@H](C(C)C)C[C@H]1Cc1nc2cccc(C)c2[nH]1` the same measures were -6% and 0.85.
For `O=C(Cc1ccsc1)N1CCN(c2cc(-n3cncn3)ncn2)CC1`, the “% Inhibition” value was -16% and the Z score stood at 2.03.
For `CCOc1ccc(S(=O)(=O)N2CC(n3ccnn3)C2)cc1F` the same measures were -18% and 2.85.
For `Cc1ccc(-n2nc(C(=O)NCC3CC3)c(=O)n(Cc3ccccc3F)c2=O)cc1` the same measures were -10% and 1.41.
For `CC(C)n1cc2cc(C(=O)N3CCN(CCC#N)CC3)sc2c1` the same measures were -2% and 0.38.
For the compound `Cc1nnsc1C(=O)N1CCC[C@H](Oc2cnccn2)C1`, the “% Inhibition” value was -14% and the Z score is given as 2.34.
For `CC[C@@H]1Oc2ccc(NC(=O)Cc3ccc(F)cc3)cc2CN(Cc2ccccc2F)C1=O` the same measures were -5% and 0.45.
As for `O=C(Nc1ccccc1)c1cccc(-n2ccnc2)n1`, the “% Inhibition” value stood at 29% and the Z score is given as -3.92.
For `COC(=O)[C@@](C)(NCc1ccccn1)C1CC1` the same measures were -13% and 1.67.
On to `c1cn(CCCn2ccnc2-c2ccc(-c3cc[nH]n3)o2)cn1`, for which the “% Inhibition” value is given as 6% and the Z score is -1.19.
For `C[C@H]1Cc2ccccc2N1Cc1nc(-c2cccnc2)no1` the same measures were -3% and 0.48.
For `CCN(CC)C(=O)C1CCCN1C(=O)C1COc2ccccc2O1` (stereo not drawn) the same measures were 7% and -1.17.
For `CC(C)N1CC[C@H](NC(=O)Nc2cc(C3CCC3)nn2C)C1=O` the same measures were -2% and 0.15.
As to `O=C(O)[C@H]1CCCN1CC1CCOc2ccccc21` (stereo partly drawn), the “% Inhibition” value is -6% and the Z score is reported as 1.27.
For `Cc1nccc(OC2CCN(C(=O)COCc3ccccc3)CC2)n1`, in that order: 0% and -0.06.
On to `CC(C)N1CCN(c2nc(-c3ccccc3Cl)c3c(N)n(C)nc3n2)CC1`, for which the “% Inhibition” value is -4% and the Z score is listed as 0.61.
For `C[C@H](NC(=O)N(CCO)Cc1ccco1)C(=O)N(C)C`, in that order: -7% and 1.01.
For `CC(C)(NS(C)(=O)=O)c1noc(C2(c3ccccc3)CC2)n1` the same measures were -6% and 0.71.
For `O=C1CN(CCOc2ccc(Cl)cc2Br)CCN1`, in that order: -4% and 0.54.
Regarding `CCCOC(=O)c1cc(NC(=O)c2ccc3ccccc3c2)ccc1N1CCOCC1`, the “% Inhibition” value is 35% and the Z score is -4.02.
For `NCC1(C(=O)N2CCn3c(Cc4cccc(F)c4)nnc3C2)CCCC1` the same measures were -6% and 0.85.

A word on the % Inhibition: it is the change of the read-out against control, counted positive when it falls.
